From PMC4336329 (PLoS ONE, 2015)
Among all 310,000 compounds or so, about 14,000 (4.5%) showed an effect of 50% or more. The effect is printed as a negative number. Some of the results follow.

Target: human ether-à-go-go-related gene (hERG) potassium channel (human, UniProt Q12809)
Test: primary screen, population patch clamp on CHO cells stably expressing hERG
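Further: peak tail current of the secondary pulse compared with the same well before compound.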

human ether-à-go-go-related gene (hERG) potassium channel, sequence (Q12809 whole entry, looked up): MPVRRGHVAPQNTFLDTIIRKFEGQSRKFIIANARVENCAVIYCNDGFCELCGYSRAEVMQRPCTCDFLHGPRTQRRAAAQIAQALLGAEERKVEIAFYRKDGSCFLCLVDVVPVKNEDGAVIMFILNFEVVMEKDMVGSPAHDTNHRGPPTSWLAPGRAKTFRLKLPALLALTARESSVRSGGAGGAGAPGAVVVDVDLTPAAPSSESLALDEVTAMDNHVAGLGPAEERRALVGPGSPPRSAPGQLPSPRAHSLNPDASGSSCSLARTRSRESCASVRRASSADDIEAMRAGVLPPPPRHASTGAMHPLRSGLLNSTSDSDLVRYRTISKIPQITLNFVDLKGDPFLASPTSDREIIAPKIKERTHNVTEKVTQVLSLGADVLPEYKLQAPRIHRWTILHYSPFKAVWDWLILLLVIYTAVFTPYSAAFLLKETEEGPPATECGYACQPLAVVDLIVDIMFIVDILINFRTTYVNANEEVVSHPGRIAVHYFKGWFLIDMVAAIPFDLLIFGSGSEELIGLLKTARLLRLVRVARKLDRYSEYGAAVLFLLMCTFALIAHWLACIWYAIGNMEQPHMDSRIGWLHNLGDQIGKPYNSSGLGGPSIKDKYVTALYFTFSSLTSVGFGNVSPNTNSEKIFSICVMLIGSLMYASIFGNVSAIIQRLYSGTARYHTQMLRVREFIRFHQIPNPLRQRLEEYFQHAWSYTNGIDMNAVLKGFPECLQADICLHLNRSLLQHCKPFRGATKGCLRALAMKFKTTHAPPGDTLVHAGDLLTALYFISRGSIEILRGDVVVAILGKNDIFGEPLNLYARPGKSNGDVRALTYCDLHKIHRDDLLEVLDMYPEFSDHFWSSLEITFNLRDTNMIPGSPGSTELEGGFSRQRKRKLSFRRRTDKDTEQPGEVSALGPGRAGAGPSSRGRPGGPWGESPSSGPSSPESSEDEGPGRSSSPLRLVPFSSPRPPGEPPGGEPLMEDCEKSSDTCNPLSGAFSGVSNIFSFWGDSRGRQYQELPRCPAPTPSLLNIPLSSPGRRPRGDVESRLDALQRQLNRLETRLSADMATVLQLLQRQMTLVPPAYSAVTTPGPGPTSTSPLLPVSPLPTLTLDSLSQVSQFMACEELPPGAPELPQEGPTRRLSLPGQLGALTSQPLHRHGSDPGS

Row | Compound | hERG current change (%, negative = inhibition) at 10uM
1 | CC(C)CC1(C(=O)NCc2cc(F)cc(C(F)(F)F)c2)C=CCN1C(=O)c1ccccc1 (centres unmarked) | 0.637%
2 | COCc1cc(C)nc(SCC[N+](C)(C)CC(=O)Nc2cccc(C)c2)c1C#N.[Cl-] | -33.3%
3 | O=C1C=C(c2ccc(Oc3ccccc3)cc2)C[C@@H](c2ccc3c(c2)OCO3)C1 | 7.39%
4 | CCC(=O)Nc1ccc(C(=O)NNC(=O)c2ccccc2)cc1 | 1.89%
5 | Oc1ccc(-c2onc3ccc(Cl)cc23)cc1 | -6.55%
6 | COC(=O)[C@H](Cc1ccccc1)NC(=O)O[C@H]1C(=O)c2ccc(OC)cc2O[C@@H]1c1ccc2c(c1)OCO2 | 1.54%
7 | C=CCC1(NCc2ccco2)CCN(CC)CC1.O=C(O)C(=O)O | -5.28%
8 | CCOc1cc(CNc2ccc3c(c2)OCCO3)cc(Br)c1OCC | 4.9%
9 | Cc1cc2ncn(C(=O)N3CCC(C)CC3)c2cc1C | -4.06%
10 | Cc1cccc(COc2ccccc2C(=O)OCC(=O)N(C)c2c(N)n(Cc3ccccc3)c(=O)[nH]c2=O)c1 | 20.8%
11 | Cc1cc(C)nc(Nc2cccc(Cl)c2)n1.Cl | 21.8%
12 | O=C(NCc1ccccc1CN1CCCC1)c1cccc(S(=O)(=O)N2CCOCC2)c1 | -44.5%
13 | O=C(Cc1c(F)cccc1Cl)NCC1CCCO1 (centres unmarked) | 9.86%
14 | Cc1ccc(-c2cc(C(=O)NCc3cnn(C)c3)c3cc(Br)ccc3n2)cc1 | -3.68%
15 | O=C(Nc1nnc(-c2ccccc2F)s1)c1cccnc1 | 5.14%
16 | O=C(Oc1cccc2ccccc12)C1CC1 | 16.6%
17 | CCc1ccc(CN(C)C(=O)CCc2nnc(CCc3ccccc3OC)o2)nc1 | -1.47%
18 | COc1ccccc1OCCNC(=O)Nc1cc(F)c(F)cc1Cl | 2.75%
19 | COc1cc(C(F)(F)F)c(C(=O)N(C)Cc2cc(Cl)cc(Cl)c2)cn1 | -18.9%
20 | COc1ccc(C(=O)N2CC(c3ccccc3)CC2=O)cc1 (centres unmarked) | 4.56%
21 | CCCN(C(=O)CSc1ncnc2sccc12)c1c(N)n(Cc2ccccc2)c(=O)[nH]c1=O | -11%
22 | CCCCOC(=O)c1nnc(-c2ccc(Cl)cc2)o1 | -1.95%

Row | Compound | hERG current change (%, negative = inhibition) at 10uM
23 | O=[N+]([O-])c1cccc(OCc2cn3cccnc3n2)c1 | 0.503%
24 | CC(C)c1nc(CNC(=O)c2ccc(OC3CCN(Cc4ccccn4)CC3)cc2)cs1 | -16.6%
25 | CCc1ccc(C(=O)Cc2cc3cccc(OC)c3oc2=O)cc1 | 11.2%
26 | Cc1nc2scc(-c3ccc(C(C)C)cc3)c2c(=O)n1N | 11.8%
27 | O=C(CSc1ccc2nnc(-c3cccnc3)n2n1)Nc1ccccc1 | -17.8%
28 | COc1ccc(-c2nnc(N(C)C(=O)C3CCOC3)s2)cc1 (centres unmarked) | 9.84%
29 | COc1ccc2cc(C(C)C(=O)O)ccc2c1 (centres unmarked) | 7.65%
30 | Cn1c(CN2CCN(c3cccc(Cl)c3)CC2)nc2ccccc21 | -44.7%
31 | COc1ccc(CCN(C(=O)c2ccco2)C(C(=O)NC2CCCC2)c2ccncc2)cc1OC (centres unmarked) | -55%
32 | COC(=O)Cn1ncc(N2CC(C)OC(C)C2)c(Cl)c1=O (centres unmarked) | 22.6%
33 | CC(C(=O)NCc1ccccn1)c1ccc([N+](=O)[O-])cc1 (centres unmarked) | -49.5%
34 | CC(=O)NC(Cc1ccccc1F)C(=O)NC1CCN(C(=O)NCc2ccccc2)CC1 (centres unmarked) | 14.8%
35 | O=C(O)/C=C\C(=O)Nc1ccccc1C#Cc1ccccc1 | 3.73%
36 | O=c1ccc(=O)n(-c2ccccc2)[nH]1 | 6.5%
37 | CCOC(=O)Nc1cc(C(=O)OC)ccc1C | -2.44%
38 | Cc1ccc2[nH]c(=S)cc(C)c2c1 | 19.9%
39 | CSc1nnc(C)c(=O)n1COC(=O)c1ccc(S(=O)(=O)N2CCCC2)cc1 | -22.8%
40 | CCC(Oc1ccccc1)C(=O)Nc1ccc(S(=O)(=O)Nc2cnc3ccccc3n2)cc1 (centres unmarked) | -4.59%
41 | O=C(NCc1ccco1)c1nn(-c2ccccc2)c(=O)c2ccccc12 | -12.4%
42 | Cc1ccc(C)c(/C=N/n2cc(-c3ccccc3)[nH]c2=S)c1 | 21.8%
43 | Cc1ccc(SCC(=O)NC(=O)Nc2ccc3c(c2)OCCO3)c(C)c1 | 4.24%
44 | Cc1ccc(C2=NOC(c3nnc(-c4ccccc4)o3)C2)cc1 (centres unmarked) | -0.301%
